Reference: PubChem BioAssay AID504845 (National Center for Advancing Translational Sciences (NCATS), 2011)
Among all 390,000 compounds or so, about 150 (0.038%) were called active. The shares of active, inactive and inconclusive entries below differ from those in the screen. Calls come from the whole dose curve; as a rule, active = well fitted inhibition curve with a large enough effect; inconclusive = small, poorly fitted or top-dose-only effect; inactive = no such curve, though single readings can be large or run the other way. A potency beside an inconclusive call is a rough fit, not a confirmed value.

target: Regulator of G-protein signaling 4 (Homo sapiens) (UniProt P49798); assay: Inhibitors of Regulator of G Protein Signaling (RGS) 4: qHTS; conditions: Transcreener GDP fluorescence polarization, RGS4-accelerated GTP hydrolysis; series mostly up to 114 µM; note: nearly all actives have a fitted effect of over 75% in size
Sequence of UniProt P49798 (P49798 whole entry, looked up): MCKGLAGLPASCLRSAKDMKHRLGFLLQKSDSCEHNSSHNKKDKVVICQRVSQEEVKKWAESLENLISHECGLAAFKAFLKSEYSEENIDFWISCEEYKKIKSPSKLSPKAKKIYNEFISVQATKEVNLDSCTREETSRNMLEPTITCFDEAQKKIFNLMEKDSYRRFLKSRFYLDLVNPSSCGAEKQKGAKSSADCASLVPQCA
Summary of the method: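 MLSMR compounds (23 nl, pin-transferred) preincubated 10 min at room temperature with a 500nM (2x) first reagent, then RGS4 at 900nM (2x) plus Transcreener GDP mix added; fluorescence polarization (620/688 nm) read before and after 90 min at 30 °C.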
Potency is the fitted concentration of half-maximal effect; tags give direction and shape of the fitted curve.

| Compound | Potency |
| --- | --- |
| CCn1c(SCC(=O)N2CCN(c3ccccc3)CC2)nnc1-c1c[nH]c2ccccc12 | inconclusive: 44.7 µM [inhibitor, partial curve, poor fit] |
| O=C(CN1C(=O)C2C3CC(C(Br)C3Br)C2C1=O)OCC(=O)c1cccc([N+](=O)[O-])c1 (stereo not drawn) | inconclusive: 56.2 µM [inhibitor, partial curve, poor fit] |
| CSS(=O)(=O)c1cccc2cccnc12 | inconclusive: 25.1 µM [inhibitor, full curve, poor fit] |
| Cc1cc(C)c(C)c(S(=O)(=O)N2CCC(C(=O)N(C)Cc3nc4ccccc4c(=O)[nH]3)CC2)c1C | inconclusive: 89.1 µM [inhibitor, single point] |
| CCN(CC)CCOc1ccc(Br)cc1 | inactive |
| Cc1ccccc1N1CCN(Cc2c[nH]c3ccccc23)CC1 | inactive |
| CC(=O)OCC1OC(n2c(S)c(C#N)c(-c3ccccc3)c(C#N)c2=O)C(OC(C)=O)C(OC(C)=O)C1OC(C)=O (stereo not drawn) | inconclusive: 50.1 µM [inhibitor, partial curve, poor fit] |
| CCOC(=O)C1CCCN(C(=O)c2ccc(OC)c([N+](=O)[O-])c2)C1 (stereo not drawn) | inconclusive: 70.8 µM [inhibitor, single point] |
| COCCn1c(COC)nc2ccccc21 | inconclusive: 89.1 µM [inhibitor, single point] |
| CCOc1ncccc1C(=O)OCC(=O)c1cc(C)n(Cc2ccco2)c1C | inactive |
| C=CCCN(C(Cc1ccccc1)C(=O)OC)S(=O)(=O)c1cc(Br)ccc1Br (stereo not drawn) | inactive |
| c1ccc(CNc2ccc(N3CCOCC3)cc2)cc1 | inconclusive: 56.2 µM [inhibitor, partial curve, poor fit] |
| O=C(O)c1c(-c2ccccc2)oc2ccc(OCc3ccc(Cl)c(Cl)c3)cc12 | inconclusive: 79.4 µM [inhibitor, partial curve, poor fit] |
| COc1ccc(-c2cccc(NS(=O)(=O)c3ccc(C)s3)c2)nn1 | inactive |
| Cc1[nH]c2ccccc2c1C(=O)COC(=O)C1CC(O)CN1S(=O)(=O)c1ccc(Cl)cc1 (stereo not drawn) | inconclusive: 28.2 µM [inhibitor, full curve, poor fit] |
| CCOc1ccc(C(=O)CCN2CCCCC2)cc1 | inconclusive: 100 µM [inhibitor, partial curve, poor fit] |
| O=C(N/N=C/c1cccnc1)c1cc2ccccc2cc1O | inconclusive: 79.4 µM [inhibitor, partial curve, poor fit] |
| CCOC(=O)c1c(-c2ccc(C)cc2)csc1NC(=O)c1cc(-c2ccc(Cl)cc2)on1 | inconclusive: 89.1 µM [inhibitor, single point] |
